# ± gives the standard deviation of the averaged measurements. Laboratory Escherichia coli strains with one amino-acid change in an essential protein, pooled on minimal glucose agar with carbenicillin or gentamicin at twice the control MIC (plus kanamycin and chloramphenicol for the plasmids), 48 h. Fold change of barcode share against drug-free plates; higher = less susceptible. Active = above 20 in both replicates (the paper's putatively resistant). '<' = one read or none on drug, '>' = one read or none on a drug-free plate. Shares are relative, so most strains fall below 1 when a few take over. Listed are strains with at least 15 reads on both drug-free plates, and hits; most hits rest on fewer reference reads. Replicate rank correlation about 0.5. Edits are read from barcodes.
# B1: aroE; numbered along this chain (parent)
# chain: METYAVFGNPIAHSKSPFIHQQFAQQLNIEHPYGRVLAPINDFINTLNAFFSAGGKGANVTVPFKEEAFARADELTERAALAGAVNTLMRLEDGRLLGDNTDGVGLLSDLERLSFIRPGLRILLIGAGGASRGVLLPLLSLDCAVTITNRTVSRAEELAKLFAHTGSIQALSMDELEGHEFDLIINATSSGISGDIPAIPSSLIHPGIYCYDMFYQKGKTPFLAWCEQRGSKRNADGLGMLVAQAAHAFLLWHGVLPDVEPVIKQLQEELSA
# B2: mrdB; numbered along this chain (parent)
# chain: MTDNPNKKTFWDKVHLDPTMLLILLALLVYSALVIWSASGQDIGMMERKIGQIAMGLVIMVVMAQIPPRVYEGWAPYLYIICIILLVAVDAFGAISKGAQRWLDLGIVRFQPSEIAKIAVPLMVARFINRDVCPPSLKNTGIALVLIFMPTLLVAAQPDLGTSILVALSGLFVLFLSGLSWRLIGVAVVLVAAFIPILWFFLMHDYQRQRVMMLLDPESDPLGAGYHIIQSKIAIGSGGLRGKGWLHGTQSQLEFLPERHTDFIFAVLAEELGLVGILILLALYILLIMRGLWIAARAQTTFGRVMAGGLMLILFVYVFVNIGMVSGILPVVGVPLPLVSYGGSALIVLMAGFGIVMSIHTHRKMLSKSV
# B3: lysA; a variant is named by its letters at X, in order (parent)
# chain: MPHSLFSTDTDLTAENLLRLPAEFGCPXWXYDAQIIRRQIAALKQFDVVRFAQKACSNIHILRLMREQGVKVDSVSLGEIERALAAGYNPQTHPDDIXXTADVIDQATLERVSELQIPVNAGSVDMLDQLGQVSPGHRVWLRVNPGFGHGHSQKTNTGGENSKHGIWYTDLPAALDVIQRHHLQLVGIHMHIGSGVDYAHLEQXCGAMVRQVIEFGQDLQAISAGGGLSVPYQQGEEAVDTEHYYGLWNAAREQIARHLGHPVKLEIEPGRFLVAQSGVXXTQVRSVKQMGSRHFVLVDAGFNDLMRPAMYGSYHHISALAADGRSLEHAPTVETVVAGPLCESGDVFTQQEGGNVETRALPEVKAGDYLVLHDTGAYGASMSSNYNSRPLLPEVLFDNGQARLIRRRQTIEELLALELL
# Variants of: B1
# Experiment: barcode share on antibiotic plates over drug-free plates; higher = less susceptible
# Settings: with Escherichia coli (laboratory strain); antibiotic: carbenicillin; 2× MIC (3.1 µg/mL)
# Description: (§1)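 A pool of E. coli strains, each edited to carry one amino-acid change in an essential protein, was grown for 48 h on minimal glucose agar with or without antibiotic; strain barcodes were sequenced; mean of two replicates.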
row,Variant,fold change of barcode share
1,L107P,0.85 ± 0.34
2,V242W,2.89 ± 0.49
3,L139A,0.916 ± 0.11
4,V242D,> 74.8 [active]
5,L139W,1.47 ± 0.083
6,L266P,0.277 ± 0.042
7,L266A,0.293 ± 0.071
8,F249A,1.12 ± 0.21
9,L266Q,0.382 ± 0.41
10,F249D,0.841 ± 0.3
11,L123A,0.838 ± 0.39
12,F249W,0.993 ± 0.21
13,L107D,0.515 ± 0.24
14,L266D,0.293 ± 0.11
15,F249Q,1.72 ± 0.58
16,L107Q,1.01 ± 0.13
17,L139P,0.979 ± 0.39

# Same assay, conditions: with Escherichia coli (laboratory strain); antibiotic: gentamicin; 2× MIC (MIC 0.45 µg/mL)
row,Variant,fold change of barcode share
1,L107P,0.00982 ± 0.0047
2,L139A,0.00703 ± 0.0024
3,L139W,0.0039 ± 0.00065
4,L266P,< 0.00875
5,L266A,0.00822 ± 0.0062
6,F249A,0.013 ± 0.0029
7,L266Q,0.0193 ± 0.021
8,F249D,0.0174 ± 0.0063
9,F249W,< 0.00925
10,L107D,0.00598 ± 0.0023
11,L266D,0.00934 ± 0.0066
12,F249Q,0.0265 ± 0.025
13,L107Q,0.00681 ± 0.0051
14,L139P,< 0.00565
15,L135Q,< 0.0208
16,I185A,0.0223 ± 0.00041
17,L135P,< 0.0226
18,F249P,0.0278 ± 0.017

# Variants of: B2
# Experiment: as above
# Settings: with Escherichia coli (laboratory strain); antibiotic: carbenicillin; 2× MIC (3.1 µg/mL)
# Description: as §1
row,Variant,fold change of barcode share
1,M212D,0.365 ± 0.2
2,V34A,0.223 ± 0.15
3,V34Q,0.283 ± 0.13
4,I35A,0.187 ± 0.036
5,I294D,0.337 ± 0.005
6,L21P,0.188 ± 0.034
7,M212A,0.302 ± 0.085
8,I35Q,0.1606 ± 0.0009
9,V34W,0.431 ± 0.062
10,I35P,0.138 ± 0.029
11,V34D,0.397 ± 0.25
12,M357W,0.0834 ± 0.07
13,L21Q,0.175 ± 0.11
14,L21D,0.256 ± 0.18
15,M357A,0.272 ± 0.12
16,I35D,0.212 ± 0.035
17,M212W,0.169 ± 0.035
18,V34P,0.467 ± 0.093
19,L214Q,0.295 ± 0.25
20,M212Q,0.244 ± 0.035
21,L21A,0.341 ± 0.011
22,L21W,0.217 ± 0.0027

# Same assay, conditions: with Escherichia coli (laboratory strain); antibiotic: gentamicin; 2× MIC (MIC 0.45 µg/mL)
row,Variant,fold change of barcode share
1,M212D,0.0197 ± 0.011
2,V34A,< 0.00755
3,V34Q,< 0.00494
4,I35A,< 0.00576
5,I294D,0.0208 ± 0.014
6,L21P,< 0.00666
7,M212A,< 0.0148
8,I35Q,0.0746 ± 0.093
9,V34W,< 0.00429
10,I35P,< 0.0104
11,V34D,0.0482 ± 0.056
12,L21Q,< 0.0115
13,L21D,< 0.00632
14,M357A,< 0.0129
15,I35D,< 0.00793
16,M212W,< 0.00744
17,V34P,< 0.00288
18,L214Q,< 0.0227
19,M212Q,0.0117 ± 0.00045
20,L21A,0.00922 ± 0.0038
21,L21W,< 0.00438
22,I35W,< 0.0208
23,L214A,< 0.0152
24,M213A,< 0.0187
25,F175Q,< 0.0185

# Variants of: B3
# Experiment: as above
# Settings: with Escherichia coli (laboratory strain); antibiotic: carbenicillin; 2× MIC (3.1 µg/mL)
# Description: as §1
row,Variant,fold change of barcode share
1,VDVFVLI,0.594 ± 0.094
2,VPVFVLI,0.423 ± 0.065
3,VQVFVLI,0.527 ± 0.15
4,VVAFVLI,0.546 ± 0.16
5,VVDFVLI,1.527 ± 0.0064
6,VVPFVLI,0.484 ± 0.042
7,VVQFVLI,0.4 ± 0.03
8,VVVAVLI,0.92 ± 0.19
9,VVVDVLI,0.533 ± 0.2
10,VVVFALI,0.631 ± 0.54
11,VVVFQLI,0.872 ± 0.33
12,VVVFVAI,0.376 ± 0.014

# Same assay, conditions: with Escherichia coli (laboratory strain); antibiotic: gentamicin; 2× MIC (MIC 0.45 µg/mL)
row,Variant,fold change of barcode share
1,VDVFVLI,0.117 ± 0.16
2,VPVFVLI,0.0286 ± 0.026
3,VQVFVLI,0.0239 ± 0.029
4,VVAFVLI,0.0209 ± 0.025
5,VVDFVLI,0.0315 ± 0.039
6,VVPFVLI,0.0277 ± 0.022
7,VVQFVLI,0.0408 ± 0.052
8,VVVAVLI,0.0185 ± 0.024
9,VVVDVLI,0.0348 ± 0.041
10,VVVFALI,0.0382 ± 0.045
11,VVVFQLI,0.0725 ± 0.051
12,VVVFVAI,0.305 ± 0.36

# Reference: the supplement of paper PMC11876631
